# The campaign covered roughly 45,000 compounds. About 200 (0.44%) were called active. Inconclusive results (about 7%) are left out. Calls come from the whole dose curve; as a rule, active = well fitted activation curve with a large enough effect; inconclusive = small, poorly fitted or top-dose-only effect; inactive = no such curve, though single readings can be large or run the other way. Some of the results follow.
# Assay: qHTS of TDP-43 Inhibitors: NCGC Sytravon Library Screen; note: 0% is about no effect; nearly all actives have a fitted effect of over 55% in size
# Conditions: yeast TDP-43 toxicity rescue, BacTiter-Glo growth, 24 h; series mostly up to 46.1 µM; growth rescue (activation): at the top concentration
# Method in brief: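 TDP-43-expressing yeast, pregrown in raffinose, seeded at OD600 0.02 in galactose medium with compound for 24 hr at 30 deg C. Growth read by BacTiter-Glo luminescence, so rescue of toxicity appears as activation.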
row,SMILES,growth rescue (activation)
1,CC1CCc2c(C(=O)Nc3ccc(OC(F)(F)F)cc3)csc2C1 (stereo not drawn),inactive: 13.7%
2,CN(C(=O)COC(=O)c1cc(Br)c(Br)s1)C1CCS(=O)(=O)C1 (stereo not drawn),inactive: -21.2%
3,O=C(N/N=C/c1cn(-c2cccs2)nc1-c1ccccc1)c1ccccc1Br,inactive: 6.7%
4,CCN(Cc1ccccc1)C(=O)c1nn(-c2ccc(OC)cc2)c(=O)c2c1c1ccccc1n2C,inactive: 12.6%
5,CC(=O)N1CCN(CC(=O)Nc2c(Cl)ccc(C)c2Cl)CC1,inactive: -4.41%
6,COc1cccc(CN2CCCC(C(=O)Nc3ccc(-c4cscn4)cc3)C2)c1 (stereo not drawn),inactive: -5.49%
7,CCC1(C)Cc2ccccc2C(=S)N1 (stereo not drawn),inactive: -14.5%
8,O=C(CN1C(=O)NC2(CCc3ccccc32)C1=O)NCc1cccc(C(F)(F)F)c1 (stereo not drawn),inactive: 9.62%
9,C[n+]1c(/C=C/c2ccc3c(c2)OCO3)ccc2ccccc21,inactive: -4.83%
10,COc1ccc(C(CNC(=O)CN(C)S(=O)(=O)c2ccc(C)cc2)N2CCCC2)cc1 (stereo not drawn),inactive: -2.09%
11,COC(=O)c1ccccc1N1CCS(=O)(=O)CC1,inactive: -5.82%
12,COc1ccc(-c2cc(-c3cc(C)ccc3O)[nH]n2)cc1,inactive: 7.89%
13,Cc1cc(C)n(-c2ccc(C(=O)OCC(=O)Nc3cc(Cl)ccc3[N+](=O)[O-])cc2)n1,inactive: -13.4%
14,CCc1nc2ccc(C(=O)NCCc3c[nH]c4ccccc34)cn2c1N(C)Cc1ccc(N(C)C)cc1,inactive: 6.12%
15,Cc1ccc(-n2nc(C(=O)NN)c(C)c(C#N)c2=O)cc1Cl,inactive: -8.17%
16,O=C(Nc1nc(-c2ccccc2)cs1)c1ccccc1NS(=O)(=O)c1ccc(F)cc1,inactive: -89.2%
17,CN1C(=S)N2CCCN2C1c1ccccc1 (stereo not drawn),inactive: 9.4%
18,O=C(Nc1ccc(S(=O)(=O)N2CCCCC2)cc1)c1ccccc1F,inactive: 7.4%
19,COc1ccccc1C(=O)NCC(=O)OCC(=O)Nc1cccc(S(=O)(=O)N(C)C)c1,inactive: 14.6%
20,COc1cc(/C=N/N=C2/NC(=O)C(Cc3ccccc3)S2)ccc1O (stereo not drawn),inactive: 13.5%
21,Cc1cccc(C(=O)NCC(=O)OCC(=O)c2ccc(C)s2)c1,inactive: -0.729%
22,CN(C(=O)c1ccc(OC2CCN(CCc3ccccc3)CC2)cc1)C1CCOC1 (stereo not drawn),inactive: 12.5%
23,CC(=O)NCCNC(=O)CNC(=O)c1ccc(Cl)cc1,inactive: -16.9%

row,SMILES,growth rescue (activation)
1,CN1C[C@@H](CO)O[C@@H](n2cnc3c(N4CCN(CCO)CC4)ncnc32)C1,inactive: 2.23%
2,COc1ccc(C2C(C#N)=C(N)OC3=C2C(=O)CCC3)cc1OC (stereo not drawn),inactive: -13.1%
3,CC(/C=N/NC(=O)c1nnn(-c2nonc2N)c1CN(C)C)=C\c1ccco1,inactive: -15.3%
4,CC1(C(=O)O)CCCN(C(=O)c2ccc(F)cc2Cl)C1 (stereo not drawn),inactive: 16.7%
5,CN1C(=O)C(CC(=O)Nc2ccccc2F)N(NC(=O)c2ccc(Br)cc2)C1=S (stereo not drawn),inactive: 8.27%
6,CCN(CC)S(=O)(=O)c1ccc2c(c1)nc(CCC(=O)Nc1ccc3c(c1)OCO3)n2C,inactive: -3.86%
7,Cn1c(N)c(C(=O)COC(=O)CCC(=O)c2ccc(F)cc2)c(=O)n(C)c1=O,inactive: 9.92%
8,NC(=O)CSc1ncc(-c2ccc([N+](=O)[O-])cc2)[nH]1,inactive: 5.85%
9,O=C(/C(=N/N=C/c1ccc(O)c(O)c1)c1ccccc1)c1ccccc1,inactive: -89.5%
10,CC(C)OCCCNC(=O)Cc1ccc(Br)cc1,inactive: 2.02%
11,Cc1ccc(N(C(=O)c2snc(C(N)=O)c2N)C(C(=O)NC2CCCC2)c2ccco2)cc1 (stereo not drawn),inactive: -8.44%
12,COc1cccc(/C=C(/C(=O)OCC(=O)NC2CCCC(C)C2C)c2ccccc2)c1 (stereo not drawn),inactive: 0.146%
13,COc1ccccc1N1CCN(c2ncc(C(=O)N3CCN(c4cccc(Cl)c4)CC3)c3ccccc23)CC1,inactive: -16.1%
14,COc1ccc2c(c1)C(C)CC(C)(C)N2C(=O)NC1CCCCC1 (stereo not drawn),inactive: -13.4%
15,CN1/C(=C\C=N\O)C(C)(C)c2ccccc21,inactive: -6.42%
16,CCc1ccccc1N=C1S/C(=C/c2ccccc2OCC(=O)N2CCOCC2)C(=O)N1C,inactive: 17.1%
17,O=C(C1CCCC1)N1CCN(S(=O)(=O)c2cccc(Cl)c2Cl)CC1,inactive: -4.95%
18,O=C(CN1C(=O)CNC1=O)Nc1cc(Cl)cc(Cl)c1,inactive: -16.8%
19,Cc1[nH]c(=O)[nH]c(=O)c1S(=O)(=O)N1CCC(C(=O)N2CCN(c3cccc(C(F)(F)F)c3)CC2)CC1,inactive: -0.756%
20,Cc1ccc(C(=O)NC(C)CCc2ccccc2)cc1S(=O)(=O)N1CCOCC1 (stereo not drawn),inactive: 29.6%
21,CC(C)(C)C1CCC(=NNc2nc3ccccc3[nH]2)CC1 (stereo not drawn),inactive: -1.96%
22,Cc1cc(NC(=O)c2n[nH]c(=O)c3ccccc23)ccc1Br,inactive: 5.8%
23,CN(CC(=O)Nc1ccc(F)c(F)c1F)C(=O)c1ccc(N2CCCC2=O)cc1,inactive: -6.37%

row,SMILES,growth rescue (activation)
1,C=CCc1cccc(CNn2cnnc2)c1O,inactive: 10.7%
2,Cc1ccc(/C=N/NC(=O)c2cccs2)o1,inactive: -13%
3,O=C(COc1cccc(Cl)c1)Nc1ccc2c(c1)CCC2,inactive: 8.78%
4,CCCS(=O)(=O)NC(=O)C1(C)CCCN(C(=O)c2cc3ccccc3s2)C1 (stereo not drawn),inactive: -2.46%
5,COC(=O)c1sccc1NC(=O)c1ccc(OC)cc1OC,inactive: 11.8%
6,O=C(CCn1nc(-c2ccc(Cl)cc2)c2ccccc2c1=O)Nc1cccnc1,inactive: 12.5%
7,Cc1cccc(C)c1NC(=S)N1CCC(c2ccccc2)C1 (stereo not drawn),inactive: -2.51%
8,CC(=O)c1ccc(S(=O)(=O)N(C)CCCC(=O)N(C)Cc2ccccc2F)cc1,inactive: -1.87%
9,Cc1ccc(S(=O)(=O)NN2C(=O)c3ccccc3NC2c2ccccc2O)cc1 (stereo not drawn),inactive: 3.83%
10,CC(=O)Nc1ccc(S(=O)(=O)c2ccc(C)cc2)cc1,inactive: 21.4%
11,O=C(COC(=O)c1cccc(S(=O)(=O)N2CCOCC2)c1)NCc1ccccc1,inactive: 12.5%
12,COc1ccc(C(O)c2ncc(-c3ccccc3OC)[nH]2)cc1 (stereo not drawn),inactive: 8.12%
13,O=C1c2ccccc2S(=O)(=O)N1Cc1c(F)cccc1Cl,inactive: 10.3%
14,CCOC(=O)C1(Cc2cccc(F)c2)CCN(CC2CC2)CC1,inactive: 8.67%
15,COc1cc(OC)cc(C(=O)/C=C2\Sc3ccccc3N2C)c1,inactive: -0.204%
16,CCCN1C(=O)/C(=C/c2ccncc2)SC1=S,inactive: 6.88%
17,COc1cc(-c2csc(NC3CCCCC3)n2)cc(OC)c1OC,inactive: 2.55%
18,COc1ccc(NC(=O)N2CCN(c3ccc([N+](=O)[O-])cc3)CC2)cc1OC,inactive: 14.5%
19,CCn1c2ccccc2c2cc(N=C3SC(CC(=O)Nc4ccccc4OC)C(=O)N3CCOC)ccc21 (stereo not drawn),inactive: 9.63%
20,Nc1cc(S(=O)(=O)Nc2cc(Cl)ccc2Cl)ccc1N1CCOCC1,inactive: 26.6%
21,O=C1Cc2cc(S(=O)(=O)NCc3ccc(F)cc3)ccc2N1,inactive: 1.77%
22,Cn1cc(CNC(=O)C2CCC(=O)N(Cc3ccccc3F)C2)cn1 (stereo not drawn),inactive: -7.67%
